In the supplement of paper PMC3334620:
Over roughly 33,000 sequences, “E-score (-0.5 to 0.5)” has its median near -0.054; the highest 2% begin near 0.35. The list shows a part of the results.

Biological target: T1, Stb5 (UniProt P38699)
T1 sequence: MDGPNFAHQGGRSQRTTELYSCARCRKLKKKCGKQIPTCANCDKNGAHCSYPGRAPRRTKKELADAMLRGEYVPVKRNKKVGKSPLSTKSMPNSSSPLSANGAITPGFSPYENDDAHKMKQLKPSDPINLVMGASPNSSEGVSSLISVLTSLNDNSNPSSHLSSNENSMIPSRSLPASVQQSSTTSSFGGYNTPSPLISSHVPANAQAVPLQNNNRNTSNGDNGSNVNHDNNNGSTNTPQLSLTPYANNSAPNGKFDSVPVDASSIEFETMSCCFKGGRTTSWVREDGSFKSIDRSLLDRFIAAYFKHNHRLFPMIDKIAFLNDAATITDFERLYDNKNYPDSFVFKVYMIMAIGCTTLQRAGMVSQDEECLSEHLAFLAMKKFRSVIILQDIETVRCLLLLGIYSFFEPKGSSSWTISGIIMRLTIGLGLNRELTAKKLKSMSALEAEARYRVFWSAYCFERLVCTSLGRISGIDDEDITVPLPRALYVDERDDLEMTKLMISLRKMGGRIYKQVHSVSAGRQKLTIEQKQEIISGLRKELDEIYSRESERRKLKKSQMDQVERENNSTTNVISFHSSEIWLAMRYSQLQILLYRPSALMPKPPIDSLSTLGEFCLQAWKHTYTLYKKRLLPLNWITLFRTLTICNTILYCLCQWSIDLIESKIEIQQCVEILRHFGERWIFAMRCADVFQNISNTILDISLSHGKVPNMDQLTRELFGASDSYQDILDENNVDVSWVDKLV
Experiment: PBM E-score (8-mer binding enrichment) (E-score (-0.5 to 0.5)); higher = stronger / more preferred TF binding; most listed sequences are background and not binding sites
Details: protein concentration: 200 nM; construct: GST-full length
Outline: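 Using PURExpress in vitro transcription/translation, GST-tagged yeast transcription factors were made in full-length or DNA-binding-domain form. These were applied at about 100-200 nM to double-stranded universal all-10-mer Agilent arrays, and bound protein was detected with fluorescent anti-GST. Scans were normalised with masliner before the Universal PBM Analysis Suite assigned E-scores to ungapped eight-base words pooled with their reverse complements.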

Sequence	PBM E-score
GGGATAAA	0.275
ACACGCAG	-0.18
CCTTTTGC	-0.0722
ACTTTAAG	0.0294
GCATCCGC	0.0699
ACGCCTGC	-0.0631
ATCGGCCC	0.326
AAACAGAA	-0.113
CCTCACTA	0.0894
TATTAGGA	-0.105
CTTCCAGA	-0.165
CTCATACA	-0.129
CGGCGTAA	0.343
AATTCCAA	-0.114
CGACTATA	0.131
AGCCCTAA	-0.0289
ACACACGA	-0.0115
CTATCCAC	-0.1
ACTGGATC	-0.0252
ATACTGCA	0.123
CAGATCAG	-0.172
CGCCACTC	0.125
AAAGCGCC	0.13
AGATAATA	0.0325
AAATGAAT	-0.173

Sequence	PBM E-score
CGTTCCTA	-0.0477
AGAGAAAT	-0.0908
AAACGTGG	-0.159
GAGGTGCA	-0.0404
AGAAGAAT	0.00058
AGTCCCCC	-0.191
AAGGCTCT	-0.214
CACTCACC	-0.105
ATGTCCCC	0.224
ATTACTTC	-0.0445
CCTTTGGA	-0.123
CTCTTAAA	-0.0109
CTTATATC	0.0525
CCTAATCA	0.0412
AGATCCCC	0.0566
AGGATAGA	-0.11
AGCCCATG	-0.257
ATGGCATA	-0.195
AGTCTCGG	0.151
ACGCTAAT	0.039
CAGGACGG	0.171
ACAGTGCT	-0.197
ATCTCAAT	-0.196
GGCTGGAC	-0.046
CTCCTTAA	0.0854

Sequence	PBM E-score
AGTCACTG	-0.182
ATTTAAAC	0.0377
ATATGTCG	0.083
ACGAACTC	-0.0109
AATATACA	-0.0649
GGTGGTGA	-0.012
CGTGTTCA	-0.0266
TAACCTTA	-0.0347
CGGCCAAG	0.104
GGGTAGAC	-0.113
CTAGTCAA	-0.251
ACCATGAT	-0.0792
TTGGCAAA	-0.152
TAATGGCA	-0.0515
CTCTTGCA	-0.0449
ACATCCTC	0.0595
ACCTTGAC	-0.0345
ATCTCACC	0.143
CGCTCGCC	0.0794
AGTCTCCA	-0.211
CTCCGCGA	0.247
GGTGTGTA	0.139
GCTCAAGA	-0.194
CTGTATTC	0.117
CCATTGCC	-0.0272

Sequence	PBM E-score
CCGATGAG	0.208
CCGAATCC	0.124
GCATGTCA	-0.0844
GCTTCAAC	-0.205
CGTCGAAA	0.0937
CCCTCCGG	0.122
GGCCGAAC	0.123
TCGTATAA	-0.00253
CCAAAGAG	-0.1
AATTTTGG	-0.0529
AAATAACC	0.119
GAGGTGAA	0.0477
CCCACATC	-0.103
CAACCGTG	-0.0323
ACGAGTAC	-0.154
ATACGCCA	-0.146
CGGCGGGA	0.347
AAGGAATA	-0.0476
CACGCCCA	-0.12
AGAGGAGG	-0.281
GGTCAACC	-0.0755
CCTCAGCC	-0.197
GAATCGTA	-0.103
AGCTTTAA	-0.123
GAGAGCAA	-0.183

Sequence	PBM E-score
AGATTACA	0.0903
GCTAAACC	-0.0321
ACTAAGAC	-0.135
GTTCGCGA	-0.275
CTCGTCAA	-0.18
CTGTCCCA	-0.206
GAGCCGCC	0.24
ACCGAGAC	0.0851
AGTTATAC	0.143
ACCGGAGC	0.295
CGGCATCC	0.224
AAGCAGGT	-0.209
CAACCTCG	-0.0247
CGAATACG	0.0294
CTGTAAAC	-0.297
CGTATACC	-0.102
TAGAGGGA	-0.306
ACGCCACA	-0.101
ACCTCCCT	-0.321
CTTCCCTC	-0.226
AGTAAGTC	0.00667
CCAATCTA	-0.0421
AATCCCGC	0.398
GCCTGACA	-0.0672
CTATCTAC	-0.0473

Sequence	PBM E-score
TACCAACA	-0.22
TCTGTGCA	-0.195
TGGAGAAA	-0.0822
ACATCTCT	0.00397
CTAGCTTC	-0.161
AACATTTG	-0.145
AAAACGCG	0.0108
GGCAAAAA	0.2
AGTCGTCA	-0.27
ACCACCTC	0.0751
TGGCCAAA	-0.0702
CCCTACAA	-0.185
GGAGGGTA	-0.0387
CGCCAGTA	0.00181
CAGTTTCC	-0.157
GATTCGCC	-0.0633
GATCGTAC	0.0269
AAGGTCCG	0.442
GTATACGA	-0.123
AATGAACA	-0.137
CATCCGGG	0.116
TTAAACAA	-0.0423
CAAAAGGC	-0.00412
GGCACGCC	0.00113
CATTTTCC	0.104

Sequence	PBM E-score
CATTGATC	-0.0431
ATGTATAC	-0.0848
CGGGCCTA	0.437
GACGAGCC	-0.237
GAACTTTA	0.113
CGGCCACA	0.267
ACGACCCA	-0.191
GCATGCTA	-0.103
ATGAATGG	0.165
AGGCTCAA	-0.0651
ACGCGTAA	-0.0929
CGCAATTC	-0.00924
CAAAGCGC	0.175
ACACGGCG	0.2
CGGACCAG	0.0937
ACCCGGAT	0.145
ACCACAGG	-0.14
ATCCCGCC	0.334
ATCCTTAG	-0.0576
ATCTCACG	-0.0419
AGATAGAT	-0.178
GGCTATAA	0.203
